According to the supplement of paper PMC4166925:
± gives the standard deviation of the averaged measurements. Whole data set: some 33,000 sequences, median “E-score (dimensionless, -0.5 to 0.5)” near -0.049, cut for the highest 2% near 0.37. Some of the results follow.

Test system: T1, PmTbr T-box DNA-binding domain (GST fusion)
T1 sequence: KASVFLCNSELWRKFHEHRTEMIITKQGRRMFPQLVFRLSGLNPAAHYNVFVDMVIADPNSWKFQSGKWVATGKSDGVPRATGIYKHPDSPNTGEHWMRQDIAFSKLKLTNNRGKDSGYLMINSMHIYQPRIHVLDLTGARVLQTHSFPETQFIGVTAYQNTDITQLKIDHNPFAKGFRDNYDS
Experiment: PBM E-score of 8-mer (E-score (dimensionless, -0.5 to 0.5)); Tbr is Tbrain of the sea star Patiria miniata (Pm) or the sea urchin Strongylocentrotus purpuratus (Sp); higher = stronger binding preference; most listed sequences are background and not binding sites
Conditions: the construct has about 5 more residues each side
Outline: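 GST-fused Tbr T-box DNA-binding domains (the whole T-box plus about five flanking residues) were expressed in BL21 E. coli at 20 °C and purified by glutathione affinity chromatography. Universal Agilent oligonucleotide arrays were made double-stranded by primer extension, incubated with 200 nM protein in PBS (pH 7.5), then scanned and quantified. Every ungapped 8-mer was scored from probe intensities. The Universal PBM Analysis Suite gave each word an enrichment E-score, averaged over duplicate arrays.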

Point of comparison: AATCCTAG, “PBM E-score of 8-mer” value -0.31 ± 0.026. Against it:
- CATGTAAA — higher, -0.0865 ± 0.017
- ACTATTAG — higher, -0.036 ± 0.093
- AATACCAT — higher, -0.0206 ± 0.066
- GGAAGACA — higher, -0.00842 ± 0.024
- TAGTCATA — higher, -0.0725 ± 0.0084
- CAAATGAA — within error, -0.303 ± 0.0046
- TCCCCCCA — higher, -0.168 ± 0.029
- CCCGCAGA — higher, -0.168 ± 0.061
- GCCTTGAA — higher, 0.00906 ± 0.025
- GCGGTTTA — higher, -0.0137 ± 0.0091
- ATGCGATA — higher, 0.0765 ± 0.014
- ATGCGAGG — higher, 0.155 ± 0.05
- AAAACCCC — higher, -0.2264 ± 0.0016
- TCTACACA — higher, 0.0416 ± 0.0097
- ATAGTTTG — higher, -0.12 ± 0.03
- AAGTTCCA — higher, -0.0779 ± 0.05
- CAAGGGCC — higher, -0.243 ± 0.0032
- AGCCACGC — higher, -0.0441 ± 0.025
- AAATTGCC — higher, -0.0577 ± 0.12
- TAAAGTTA — higher, -0.195 ± 0.073
- GAGGCTCC — higher, -0.101 ± 0.097
- CCGCGACC — higher, 0.00378 ± 0.03
- CCCGGTCG — higher, -0.111 ± 0.059
- ATGGCTCC — higher, -0.143 ± 0.015
- AAACGTTC — higher, -0.0546 ± 0.081
- AGCTAGAA — higher, -0.041 ± 0.032
- AGCTGAGA — higher, 0.165 ± 0.07
- CAGCAACG — higher, 0.0837 ± 0.049
- GGACGACC — lower, -0.367 ± 0.021
- CGCGCAAA — higher, 0.172 ± 0.036
- AAGGGCCA — higher, -0.203 ± 0.0058
- TCCACTAA — higher, -0.121 ± 0.037
- ATAACATA — higher, -0.0354 ± 0.053
- ACTGCGTA — higher, -0.084 ± 0.063
- CGCCCGAG — higher, 0.159 ± 0.072
- CTGGGTAA — higher, -0.12 ± 0.047
- ACTCCTAA — within error, -0.284 ± 0.0031
- AATGGCCA — higher, -0.153 ± 0.014
- AGCTTTCA — higher, -0.0869 ± 0.029
- ACCCCGAT — higher, -0.0394 ± 0.1
- GGTTGGAC — higher, -0.0675 ± 0.016
- CGACGGTC — higher, -0.00835 ± 0.024
- AAGTGCTA — higher, 0.448 ± 0.016
- AGCGTCGA — higher, -0.101 ± 0.0055
- CAAACAGC — higher, 0.00487 ± 0.034
- CACCTTGC — higher, 0.4191 ± 0.0029
- TGGCTACA — higher, -0.117 ± 0.0015
- CAAACAAA — higher, -0.051 ± 0.021
- AAGGGAGA — higher, -0.166 ± 0.039
- GATCATGA — higher, -0.195 ± 0.009
- CTCATCAC — higher, 0.249 ± 0.0053
- GCTGCATA — higher, -0.0535 ± 0.029
- TCCGGTCA — higher, -0.105 ± 0.023
- AATGTGCT — higher, 0.251 ± 0.023
- AGGGCCTA — within error, -0.312 ± 0.038
- ACGCTTTC — higher, 0.101 ± 0.036
- CTGGCATC — higher, -0.0115 ± 0.013
- AATCCGCA — higher, 0.0886 ± 0.023
- AAGGTATC — higher, 0.108 ± 0.077
- CTATGGTC — higher, -0.182 ± 0.017
- CTGGCGTA — higher, -0.0506 ± 0.048
- ATACACGC — higher, 0.0808 ± 0.053
- CTGCCCCA — higher, 0.0302 ± 0.0014
- ATCGGGTG — higher, 0.212 ± 0.043
- GAAACTAA — higher, 0.0495 ± 0.037
- GCTATGAA — higher, -0.223 ± 0.019
- ATTGTACG — higher, -0.0254 ± 0.021
- GTCCAGTA — within error, -0.228 ± 0.11
- AACACAAT — higher, 0.229 ± 0.0032
- CACTACTG — higher, 0.0937 ± 0.016
- GAAGGCCA — higher, -0.238 ± 0.03
- AATAACAA — higher, 0.0902 ± 0.031
- CCAAGCCA — within error, -0.297 ± 0.0033
- AAGAAAAG — within error, -0.321 ± 0.14
- TCGTACAA — higher, -0.0321 ± 0.12
- GGGGCGTA — higher, -0.141 ± 0.034
- CACTACCG — higher, 0.138 ± 0.026
- CCGGCTGA — higher, -0.222 ± 0.012
- ACTTTGTC — higher, 0.218 ± 0.026
- CCAGCTCA — higher, 0.032 ± 0.011
- CCCAGATA — within error, -0.233 ± 0.14
- ATTGACCG — higher, -0.205 ± 0.029
- ATCTTATA — higher, -0.079 ± 0.064
- ACCATTCA — higher, 0.041 ± 0.024
- CAACGCGG — higher, 0.143 ± 0.035
